Source: the supplement of paper PMC3334620
The full ranking holds about 33,000 sequences; the median of “E-score (-0.5 to 0.5)” is about -0.021, and the highest 2% start at about 0.32. The list shows a part of the results.

target: T1, Zap1 (UniProt P47043); assay: PBM E-score (8-mer binding enrichment) (E-score (-0.5 to 0.5)); higher = stronger / more preferred TF binding; most listed sequences are background and not binding sites; conditions: protein concentration: 200 nM; construct: GST-full length
T1 sequence: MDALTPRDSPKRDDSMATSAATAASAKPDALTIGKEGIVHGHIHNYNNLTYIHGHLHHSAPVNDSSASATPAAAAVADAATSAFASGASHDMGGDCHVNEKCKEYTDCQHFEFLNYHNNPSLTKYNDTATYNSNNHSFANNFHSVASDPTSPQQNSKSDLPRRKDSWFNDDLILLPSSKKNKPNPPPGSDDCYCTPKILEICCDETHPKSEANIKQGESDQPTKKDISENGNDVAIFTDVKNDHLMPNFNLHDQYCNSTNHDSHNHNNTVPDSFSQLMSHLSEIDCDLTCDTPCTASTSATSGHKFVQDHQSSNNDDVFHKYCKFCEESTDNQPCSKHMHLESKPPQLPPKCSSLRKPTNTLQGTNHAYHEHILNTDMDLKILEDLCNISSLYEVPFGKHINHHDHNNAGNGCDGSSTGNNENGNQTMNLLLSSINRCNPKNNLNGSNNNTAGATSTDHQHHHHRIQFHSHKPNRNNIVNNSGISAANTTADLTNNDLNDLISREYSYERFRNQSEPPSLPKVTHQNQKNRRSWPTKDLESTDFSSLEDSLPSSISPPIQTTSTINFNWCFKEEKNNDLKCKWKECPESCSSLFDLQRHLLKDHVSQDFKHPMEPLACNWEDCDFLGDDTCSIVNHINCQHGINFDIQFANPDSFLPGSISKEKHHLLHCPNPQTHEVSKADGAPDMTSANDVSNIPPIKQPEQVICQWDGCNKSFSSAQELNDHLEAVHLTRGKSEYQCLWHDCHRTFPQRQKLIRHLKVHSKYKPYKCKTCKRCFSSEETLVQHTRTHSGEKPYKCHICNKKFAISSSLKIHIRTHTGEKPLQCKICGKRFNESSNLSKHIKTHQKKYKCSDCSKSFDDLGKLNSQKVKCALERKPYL
Summary of the method: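 Detection of bound protein used fluorescent anti-GST, with scans normalised by masliner. The proteins were GST-tagged yeast transcription factors applied at about 100-200 nM to universal all-10-mer Agilent arrays made double-stranded by primer extension. Each ungapped eight-base word, pooled with its reverse complement, was scored with an E-score from the Universal PBM Analysis Suite.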

| Sequence | PBM E-score |
| --- | --- |
| CGGGTACC | 0.432 |
| ATTTCCAC | -0.00072 |
| AGCTCTTG | -0.246 |
| ATTAAAGG | 0.267 |
| ACGGCGGC | -0.295 |
| AGTGCTGA | -0.168 |
| ACGAACCG | -0.0396 |
| CCCTTACC | 0.208 |
| AATATTAA | 0.102 |
| AGCCTAAT | -0.212 |
| ATATATGA | 0.034 |
| CGGTCCAG | -0.148 |
| AACAACGC | 0.0483 |
| CTTTCGTA | 0.0293 |
| ACGCTAGG | -0.227 |
| GACGTACC | -0.177 |
| GCCAGGCA | -0.223 |
| GTATGATA | 0.14 |
| ACGTCAAA | 0.00961 |
| CACCCTTA | 0.269 |
| AAGCTTGG | -0.126 |
| ACGCCATG | 0.038 |

| Sequence | PBM E-score |
| --- | --- |
| CGCTGGTA | 0.0375 |
| AACCACCT | 0.247 |
| AGGAGGAA | -0.008 |
| ACCCAAGT | 0.114 |
| AACGATCG | -0.0465 |
| ATACTGGG | -0.113 |
| AACTAGTC | -0.0128 |
| AGCGTGAC | 0.132 |
| CTCTTCCC | -0.171 |
| CAGGAACC | -0.0283 |
| CACGTCAA | -0.0909 |
| AGATCTAT | -0.12 |
| AATTGGTC | 0.248 |
| ATATCCAT | 0.0907 |
| CGCTGCTC | -0.205 |
| CCTTAATC | 0.0878 |
| AAATTCGC | 0.0398 |
| CTACAATC | 0.0261 |
| ATCGCGTG | -0.0287 |
| CAATACAG | 0.0862 |
| CCGACAGG | 0.024 |
| CGGATATA | 0.21 |

| Sequence | PBM E-score |
| --- | --- |
| CTTTGGAA | 0.0904 |
| CAACGCCC | -0.146 |
| TAAACAAA | 0.0724 |
| CGGCTTGA | -0.051 |
| CCTTACCA | -0.00238 |
| CCAGCACC | -0.0265 |
| ACTTAAAG | -0.104 |
| ACCACCCC | -0.00264 |
| AATGTTAT | 0.0898 |
| CACCTCTA | 0.22 |
| CTGTTAAC | 0.257 |
| AAGGTTAG | 0.35 |
| CGATCAGC | -0.0615 |
| GGCCAGTA | 0.177 |
| AGATCCCG | -0.00475 |
| CAGGGCCC | -0.149 |
| CGTATTTA | 0.107 |
| AGGCTACA | 0.0325 |
| ACTCTCAA | -0.204 |
| AGAACATC | -0.159 |
| AATGTGCG | 0.0232 |
| ACAAAGGC | 0.0392 |

| Sequence | PBM E-score |
| --- | --- |
| AACGTGCC | -0.265 |
| GGCACTGA | -0.0918 |
| AGCTTCTG | -0.0534 |
| CTAACTTC | -0.017 |
| GGACCTCA | 0.0651 |
| GCTTCAAA | 0.115 |
| ATGAGGGC | -0.149 |
| AACCTATG | 0.258 |
| CGGTAAGC | -0.0785 |
| AGCTTAAA | 0.0882 |
| CCGCAAGC | -0.141 |
| GTCGCGAC | 0.357 |
| CTTAGCAA | 0.00485 |
| CACGTGCA | -0.106 |
| GAAATTCA | 0.145 |
| ACTGATTC | -0.0498 |
| AGATTTTG | 0.162 |
| CACAGAGC | -0.133 |
| GACATAAC | 0.221 |
| AGTGTAGG | 0.101 |
